Experimental data: paper PMC9415896, “Total Synthesis of the Antimycobacterial Natural Product Chlorflavonin and Analogs via a Late-Stage Ruthenium(II)-Catalyzed ortho-C(sp^2)-H-Hydroxylation” (Pharmaceuticals, 2022)

Procedure: To investigate the protonation state of CF and BF in physiological media (pH = 7.4) and these compounds’ ability to form the proposed salt bridge with Lys197, the pKa values were determined by ^1H-NMR titration (see Supplementary Data File; Figures S1–S4). For determination of the pKa of the 5-hydroxy group, the shift of the singlet at 6.65 ppm, the triplet at 7.01 ppm for the 2′-hydroxyl group, and both double duplets at 7.42 and 7.59 ppm were used.
NMR experiments were performed at 298 K on a Bruker Avance III HD spectrometer operating at 600 MHz equipped with 5 mm triple resonance TCI (^1H, ^13C, ^15N) cryoprobes and shielded z-gradients. For the pKa value determination, 23 samples of 200 µM concentration of CF and BF were prepared with pH ranges from 2 to 13 (pH in 0.5 log unit steps) in 50 mM sodium phosphate, 100 mM sodium chloride, 10% (v/v) DMSO-d6. 1D ^1H-NMR experiments were performed using 128 or 256 scans for each sample, and the data were processed and analyzed by the TopSpin 3.2 software (TopSpin, v3.2, Bruker BioSpin GmbH, Rheinstetten, Germany). […] The pKa values were calculated using the chemical shifts of the protonated and unprotonated forms and their corresponding mole fraction values applying the Henderson–Hasselbalch equation as explained by Gift et al.. […]

COc1cc(O)c2c(=O)c(OC)c(-c3cccc(Br)c3O)oc2c1OC [BF, bromflavonin]
pKa1 (2′-OH): 6.74 ± 0.04 | pKa2 (5-OH): 10.30 ± 0.04
